{"source": "the supplement of paper PMC3334620", "note": "Over roughly 33,000 sequences, “E-score (-0.5 to 0.5)” has its median near -0.053; the highest 2% begin near 0.37. This is one part of the list."}
{"target": "Hap1 (UniProt P0CE41)", "sequence (P0CE41 whole entry, the tested form may be a part)": "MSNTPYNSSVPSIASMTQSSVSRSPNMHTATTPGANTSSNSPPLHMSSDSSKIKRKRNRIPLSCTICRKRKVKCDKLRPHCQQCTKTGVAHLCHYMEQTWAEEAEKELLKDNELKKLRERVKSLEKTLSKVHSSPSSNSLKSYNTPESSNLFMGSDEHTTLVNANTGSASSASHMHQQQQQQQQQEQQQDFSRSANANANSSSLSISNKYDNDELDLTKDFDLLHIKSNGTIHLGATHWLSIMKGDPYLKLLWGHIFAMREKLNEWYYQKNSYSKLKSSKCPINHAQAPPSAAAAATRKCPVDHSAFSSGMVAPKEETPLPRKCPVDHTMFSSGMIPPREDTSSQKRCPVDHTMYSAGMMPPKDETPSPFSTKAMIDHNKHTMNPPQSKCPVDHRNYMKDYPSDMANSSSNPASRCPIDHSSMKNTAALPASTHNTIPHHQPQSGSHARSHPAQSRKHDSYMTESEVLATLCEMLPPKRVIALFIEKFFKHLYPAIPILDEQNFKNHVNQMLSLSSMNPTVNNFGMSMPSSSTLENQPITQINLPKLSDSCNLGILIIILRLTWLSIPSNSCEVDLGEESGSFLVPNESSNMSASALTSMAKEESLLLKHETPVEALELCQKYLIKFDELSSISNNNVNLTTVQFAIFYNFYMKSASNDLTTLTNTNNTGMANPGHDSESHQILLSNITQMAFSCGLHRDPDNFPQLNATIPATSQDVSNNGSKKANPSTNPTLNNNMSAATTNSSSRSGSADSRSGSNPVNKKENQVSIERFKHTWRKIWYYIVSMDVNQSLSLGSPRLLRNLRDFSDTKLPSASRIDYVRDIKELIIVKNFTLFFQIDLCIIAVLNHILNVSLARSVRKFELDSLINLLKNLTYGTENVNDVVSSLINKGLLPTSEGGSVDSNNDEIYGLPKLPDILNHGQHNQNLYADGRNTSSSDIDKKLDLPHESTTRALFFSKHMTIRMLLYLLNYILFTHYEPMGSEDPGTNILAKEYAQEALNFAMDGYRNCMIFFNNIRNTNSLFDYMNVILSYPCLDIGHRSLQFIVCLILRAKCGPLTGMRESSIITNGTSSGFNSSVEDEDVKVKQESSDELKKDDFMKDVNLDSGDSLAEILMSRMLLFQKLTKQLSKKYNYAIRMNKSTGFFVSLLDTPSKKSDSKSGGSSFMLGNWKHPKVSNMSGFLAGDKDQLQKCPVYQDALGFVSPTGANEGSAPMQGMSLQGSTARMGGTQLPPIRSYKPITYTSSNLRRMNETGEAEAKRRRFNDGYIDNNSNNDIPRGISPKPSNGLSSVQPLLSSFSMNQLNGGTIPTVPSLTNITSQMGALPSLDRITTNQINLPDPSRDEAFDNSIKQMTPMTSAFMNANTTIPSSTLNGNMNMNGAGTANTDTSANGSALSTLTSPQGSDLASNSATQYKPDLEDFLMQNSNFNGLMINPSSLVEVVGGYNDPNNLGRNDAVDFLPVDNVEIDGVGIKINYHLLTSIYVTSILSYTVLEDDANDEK", "assay": "PBM E-score (8-mer binding enrichment) (E-score (-0.5 to 0.5)); higher = stronger / more preferred TF binding; most listed sequences are background and not binding sites", "settings": "protein concentration: 200 nM; construct: GST-DNA-binding domain", "in_short": "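PURExpress in vitro transcription/translation supplied GST-tagged yeast transcription factors, either full-length or DNA-binding domain. Applied at about 100-200 nM to universal all-10-mer Agilent arrays double-stranded by primer extension, the bound protein was detected with fluorescent anti-GST. E-scores, modified Wilcoxon-Mann-Whitney statistics, were given by the Universal PBM Analysis Suite to ungapped eight-base words pooled with their reverse complements after masliner normalisation.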"}
{"sequence": "GCGTAAAA", "PBM E-score": 0.0774}
{"sequence": "GCTCTCTA", "PBM E-score": -0.299}
{"sequence": "TCACCAAA", "PBM E-score": -0.144}
{"sequence": "CTTTTAGC", "PBM E-score": -0.0909}
{"sequence": "CATTAGCC", "PBM E-score": 0.0498}
{"sequence": "AGCCGACC", "PBM E-score": 0.156}
{"sequence": "CCACTGAA", "PBM E-score": -0.0989}
{"sequence": "CTCTAAAC", "PBM E-score": -0.178}
{"sequence": "GCGAGCAA", "PBM E-score": -0.15}
{"sequence": "GGATGATA", "PBM E-score": -0.00353}
{"sequence": "AACTCTAA", "PBM E-score": 0.0163}
{"sequence": "CTGGCCAG", "PBM E-score": -0.298}
{"sequence": "ACGCTCAA", "PBM E-score": -0.158}
{"sequence": "CGCGCCCG", "PBM E-score": 0.29}
{"sequence": "AGCACAAG", "PBM E-score": -0.211}
{"sequence": "CGCAAATC", "PBM E-score": 0.064}
{"sequence": "AAGCCTGT", "PBM E-score": -0.00721}
{"sequence": "CGACTGTC", "PBM E-score": -0.225}
{"sequence": "CGCCGCAC", "PBM E-score": 0.0275}
{"sequence": "CTGCCACA", "PBM E-score": -0.138}
{"sequence": "CGAAAACA", "PBM E-score": 0.0788}
{"sequence": "CAGGCTAA", "PBM E-score": -0.198}
{"sequence": "GTTACCTA", "PBM E-score": -0.281}
{"sequence": "CGAGAGCA", "PBM E-score": 0.062}
{"sequence": "ATTTCCGC", "PBM E-score": 0.399}
{"sequence": "AGATCCGA", "PBM E-score": 0.359}
{"sequence": "AATTTCCC", "PBM E-score": 0.06}
{"sequence": "ATCCCCTA", "PBM E-score": -0.144}
{"sequence": "AGACCGGA", "PBM E-score": 0.334}
{"sequence": "AACCGGTC", "PBM E-score": 0.272}
{"sequence": "CTTGAAAA", "PBM E-score": -0.246}
{"sequence": "ATCCCGAA", "PBM E-score": 0.295}
{"sequence": "TAAATTGA", "PBM E-score": -0.11}
{"sequence": "AATGTTCT", "PBM E-score": -0.226}
{"sequence": "AGAGCATG", "PBM E-score": -0.165}
{"sequence": "TGCATACA", "PBM E-score": -0.1}
{"sequence": "CGGTACTA", "PBM E-score": 0.323}
{"sequence": "GTAGTCTA", "PBM E-score": -0.238}
{"sequence": "CTACTAAG", "PBM E-score": -0.0276}
{"sequence": "AAATAGGT", "PBM E-score": -0.114}
{"sequence": "ACCTGAAG", "PBM E-score": -0.127}
{"sequence": "GCGGACGA", "PBM E-score": 0.366}
{"sequence": "AGCGCGTA", "PBM E-score": -0.0111}
{"sequence": "AGTAAACT", "PBM E-score": -0.126}
{"sequence": "CGGCAGAG", "PBM E-score": 0.111}
{"sequence": "AAGTCATG", "PBM E-score": -0.037}
{"sequence": "CACTGAGA", "PBM E-score": -0.276}
{"sequence": "AAATGAGA", "PBM E-score": -0.243}
{"sequence": "ACACATTC", "PBM E-score": 0.00613}
{"sequence": "AGAGGGAA", "PBM E-score": -0.212}
{"sequence": "CCGCAACC", "PBM E-score": 0.132}
{"sequence": "AATCGTTG", "PBM E-score": -0.0336}
{"sequence": "CAGGTCAG", "PBM E-score": -0.178}
{"sequence": "GCAGGTCA", "PBM E-score": -0.162}
{"sequence": "AACCGGGT", "PBM E-score": 0.27}
{"sequence": "ACACAGAA", "PBM E-score": -0.148}
{"sequence": "AAGCAGCC", "PBM E-score": -0.0926}
{"sequence": "GGAAACGA", "PBM E-score": 0.0226}
{"sequence": "AACCGGTT", "PBM E-score": 0.322}
{"sequence": "AATGCCAT", "PBM E-score": 0.0424}
{"sequence": "TCCGCCGA", "PBM E-score": 0.425}
{"sequence": "AGAATTAA", "PBM E-score": -0.119}
{"sequence": "GTAATTAA", "PBM E-score": 0.00588}
{"sequence": "GGTATCTA", "PBM E-score": 0.22}
{"sequence": "CTAACGTA", "PBM E-score": -0.161}
{"sequence": "AGAGTGAC", "PBM E-score": -0.193}
{"sequence": "ACGCTCTC", "PBM E-score": -0.0369}
{"sequence": "TCATATGA", "PBM E-score": 0.112}
{"sequence": "ACGGCAAC", "PBM E-score": -0.0151}
{"sequence": "GATTATGC", "PBM E-score": 0.247}
{"sequence": "GATATAAA", "PBM E-score": 0.149}
{"sequence": "AAGAACCT", "PBM E-score": -0.202}
{"sequence": "CCCGAGCG", "PBM E-score": 0.354}
{"sequence": "ACAACTTG", "PBM E-score": -0.151}
{"sequence": "AGGCTTTC", "PBM E-score": -0.25}
{"sequence": "CGTTGAGA", "PBM E-score": -0.0696}
{"sequence": "CCTAATGA", "PBM E-score": -0.254}
{"sequence": "ACTATTGG", "PBM E-score": -0.169}
{"sequence": "CTATGTCA", "PBM E-score": -0.332}
{"sequence": "ACCCTTGC", "PBM E-score": 0.0089}
{"sequence": "ACACCACA", "PBM E-score": -0.0293}
{"sequence": "ACTGTATC", "PBM E-score": -0.0347}
{"sequence": "AACGCACC", "PBM E-score": -0.133}
{"sequence": "AAAAGGGG", "PBM E-score": -0.117}
{"sequence": "GGAAATAA", "PBM E-score": 0.413}
{"sequence": "ATCTTCGC", "PBM E-score": 0.0373}
{"sequence": "ATACAGTC", "PBM E-score": -0.143}
{"sequence": "ATGGAATG", "PBM E-score": 0.0898}
{"sequence": "ATAGGTGC", "PBM E-score": -0.0566}
{"sequence": "TCGTAGAA", "PBM E-score": -0.194}
{"sequence": "AGGCATAG", "PBM E-score": -0.0783}
{"sequence": "CATTACAG", "PBM E-score": -0.176}
{"sequence": "CCCCGGCA", "PBM E-score": 0.23}
{"sequence": "CGAGATAA", "PBM E-score": 0.164}
{"sequence": "GGGGTGTA", "PBM E-score": -0.0556}
{"sequence": "CGCCATCA", "PBM E-score": -0.161}
{"sequence": "CGGGTTAA", "PBM E-score": 0.359}
{"sequence": "AGCACCTA", "PBM E-score": -0.165}
{"sequence": "CATGACGG", "PBM E-score": -0.0378}
{"sequence": "AACAGAAC", "PBM E-score": -0.103}
{"sequence": "CACCTTAC", "PBM E-score": -0.192}
{"sequence": "AGGCTCTG", "PBM E-score": -0.324}
{"sequence": "TAGAAGGA", "PBM E-score": -0.134}
{"sequence": "ACACATGA", "PBM E-score": -0.286}
{"sequence": "ATTGATTC", "PBM E-score": 0.0698}
{"sequence": "ATAGCGTG", "PBM E-score": -0.0895}
{"sequence": "AAATGGTG", "PBM E-score": -0.0779}
{"sequence": "TCAACTGA", "PBM E-score": -0.109}
{"sequence": "AGGATAGC", "PBM E-score": 0.0089}
{"sequence": "ACCGTCTG", "PBM E-score": -0.0703}
{"sequence": "TATCCAGA", "PBM E-score": -0.0797}
{"sequence": "CCGGGCCG", "PBM E-score": 0.425}
{"sequence": "GTAGATAC", "PBM E-score": -0.208}
{"sequence": "CACCACTA", "PBM E-score": -0.0168}
{"sequence": "CGCAGTGA", "PBM E-score": -0.188}
{"sequence": "CAGGACCC", "PBM E-score": -0.0829}
{"sequence": "ATTGTAAC", "PBM E-score": -0.077}
{"sequence": "CCAGGACG", "PBM E-score": -0.11}
{"sequence": "GCAGGTCC", "PBM E-score": 0.0812}
{"sequence": "CCACGAAC", "PBM E-score": -0.0332}
{"sequence": "ACATGACG", "PBM E-score": -0.171}
{"sequence": "GAATCTAC", "PBM E-score": -0.147}
{"sequence": "ACCGTTCT", "PBM E-score": -0.0137}
{"sequence": "CTTAGTTC", "PBM E-score": 0.0195}
{"sequence": "AAGACGGC", "PBM E-score": -0.0121}
{"sequence": "GAGTGCAA", "PBM E-score": -0.0275}
{"sequence": "TCAAAGGA", "PBM E-score": -0.354}
{"sequence": "CGCAATGC", "PBM E-score": -0.159}
{"sequence": "ACCACAGT", "PBM E-score": -0.153}
{"sequence": "ATGTTATG", "PBM E-score": -0.107}
{"sequence": "GTATGGTA", "PBM E-score": -0.205}
{"sequence": "TATAGTCA", "PBM E-score": -0.307}
{"sequence": "CCAGACTC", "PBM E-score": -0.19}
{"sequence": "AAGCTGAG", "PBM E-score": -0.168}
{"sequence": "CTAAGAGA", "PBM E-score": -0.177}
{"sequence": "CGAGAACC", "PBM E-score": 0.102}
{"sequence": "CCCCTAGG", "PBM E-score": -0.286}
{"sequence": "GAGAGCAC", "PBM E-score": -0.0522}
{"sequence": "GACAGTAC", "PBM E-score": 0.141}
{"sequence": "GCAGAAAC", "PBM E-score": -0.155}
{"sequence": "AGATCGCG", "PBM E-score": 0.107}
{"sequence": "AAGTTACG", "PBM E-score": -0.0204}
{"sequence": "GACACGCA", "PBM E-score": -0.0242}
{"sequence": "ACTAAAAG", "PBM E-score": 0.0881}
{"sequence": "GCTAGATA", "PBM E-score": -0.0602}
{"sequence": "ATTTTTTC", "PBM E-score": 0.0514}
{"sequence": "ATATACTG", "PBM E-score": 0.0229}
{"sequence": "AGGCAAGC", "PBM E-score": -0.106}
{"sequence": "CCAAGTAG", "PBM E-score": -0.351}
{"sequence": "CCTGGTCG", "PBM E-score": 0.0252}
{"sequence": "CGAGATTC", "PBM E-score": 0.16}
{"sequence": "CTGGCTGC", "PBM E-score": -0.136}
{"sequence": "CGTCCCTA", "PBM E-score": -0.175}
{"sequence": "CATGATAC", "PBM E-score": -0.0314}
{"sequence": "CGAATGAA", "PBM E-score": -0.0129}
{"sequence": "CTTTTGCC", "PBM E-score": -0.0123}
{"sequence": "GGACAGCA", "PBM E-score": -0.00603}
{"sequence": "ATTTCCTG", "PBM E-score": -0.0599}
{"sequence": "GAGACCCC", "PBM E-score": 0.0314}
{"sequence": "AGACTTTG", "PBM E-score": -0.255}
{"sequence": "AGGGGGGG", "PBM E-score": -0.331}
{"sequence": "ACTGCTAG", "PBM E-score": -0.267}
{"sequence": "GATCAGTA", "PBM E-score": -0.0307}
{"sequence": "AATTTTGA", "PBM E-score": -0.0914}
{"sequence": "CCAAGGAA", "PBM E-score": -0.0481}
{"sequence": "CCCGTCGA", "PBM E-score": -0.00534}
{"sequence": "GATAAAAA", "PBM E-score": 0.0398}
{"sequence": "ACTATGGA", "PBM E-score": -0.119}
{"sequence": "AAAGTGTC", "PBM E-score": 0.0945}
{"sequence": "ATGAGAGG", "PBM E-score": -0.115}
{"sequence": "ATTCACAG", "PBM E-score": -0.182}
{"sequence": "ACGAAGAA", "PBM E-score": -0.0808}
